# Hit rate of the full screen: of about 310,000 compounds, about 14,000 (4.5%) showed an effect of 50% or more. The effect is printed as a negative number. Some of the results follow.
# Target: human ether-à-go-go-related gene (hERG) potassium channel (human, UniProt Q12809)
# Experiment: primary screen, population patch clamp on CHO cells stably expressing hERG
# 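Further: peak tail current of the secondary pulse compared with the same well before compound.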
# Chain of human ether-à-go-go-related gene (hERG) potassium channel (Q12809 whole entry, looked up): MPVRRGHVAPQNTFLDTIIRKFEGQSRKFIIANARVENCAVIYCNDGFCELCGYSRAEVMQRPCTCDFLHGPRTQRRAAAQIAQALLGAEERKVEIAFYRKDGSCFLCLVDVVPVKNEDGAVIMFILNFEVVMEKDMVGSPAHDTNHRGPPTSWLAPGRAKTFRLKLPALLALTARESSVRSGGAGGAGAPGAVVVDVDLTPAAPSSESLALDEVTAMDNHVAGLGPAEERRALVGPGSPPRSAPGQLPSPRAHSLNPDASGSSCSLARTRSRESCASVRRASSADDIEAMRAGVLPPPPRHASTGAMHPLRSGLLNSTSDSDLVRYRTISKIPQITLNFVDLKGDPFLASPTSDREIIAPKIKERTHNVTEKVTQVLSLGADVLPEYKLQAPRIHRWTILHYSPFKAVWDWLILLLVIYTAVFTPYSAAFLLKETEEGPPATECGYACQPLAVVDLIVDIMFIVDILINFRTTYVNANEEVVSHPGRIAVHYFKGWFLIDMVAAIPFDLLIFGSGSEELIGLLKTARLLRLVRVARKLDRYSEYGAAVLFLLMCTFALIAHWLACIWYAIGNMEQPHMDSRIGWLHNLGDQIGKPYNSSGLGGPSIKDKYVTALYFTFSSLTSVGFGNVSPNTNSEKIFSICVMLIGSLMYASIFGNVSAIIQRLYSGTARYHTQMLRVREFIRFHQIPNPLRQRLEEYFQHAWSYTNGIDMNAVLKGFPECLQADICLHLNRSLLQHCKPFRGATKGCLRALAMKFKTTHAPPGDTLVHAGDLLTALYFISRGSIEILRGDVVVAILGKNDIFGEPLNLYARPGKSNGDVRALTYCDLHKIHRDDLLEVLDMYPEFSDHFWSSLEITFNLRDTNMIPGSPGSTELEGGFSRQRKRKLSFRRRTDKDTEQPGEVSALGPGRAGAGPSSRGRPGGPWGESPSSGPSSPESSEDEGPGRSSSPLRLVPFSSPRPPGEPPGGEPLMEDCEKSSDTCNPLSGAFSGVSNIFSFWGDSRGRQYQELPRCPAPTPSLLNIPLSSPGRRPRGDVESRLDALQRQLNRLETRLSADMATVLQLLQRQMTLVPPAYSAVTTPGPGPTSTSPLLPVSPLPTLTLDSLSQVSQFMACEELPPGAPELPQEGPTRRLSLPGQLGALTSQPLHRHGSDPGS
row,Structure (SMILES),"hERG current change (%, negative = inhibition) at 10uM [%]"
1,COc1ccc(-c2nnc(SCC(=O)N3CCN(c4ccccc4)CC3)o2)cc1OC,10
2,Cc1c(C(=O)N(Cc2ccc(N(C)C)cc2)CC2CCCO2)oc2ccccc12 (centres unmarked),-26.5
3,O=C(COC(=O)Cn1cnc2ccccc2c1=O)Nc1ccc(Cl)cc1,-12.1
4,COCCNc1nc(SCC(=O)N2CCN(c3ccccc3)CC2)nc2ccccc12,-86.9
5,COc1cccc(CN2CCN(C(=S)NCc3ccc(Cl)cc3)CC2)c1,-14.9
6,NNC(=O)c1ccc(-c2ccccc2F)cc1,1.61
7,CCCS(=O)(=O)c1nc(C)cc(C)c1S(C)(=O)=O,16.8
8,COC1=C(Nc2ccc(O)cc2)C(=O)c2ccccc2C1=O,-10.4
9,O=C(O)c1cccc(N2C(=O)c3cccc4c(Cl)ccc(c34)C2=O)c1,21.6
10,Cc1ccc(CN2CC(C(=O)Nc3ccc(S(=O)(=O)Nc4cc(C)nc(C)n4)cc3)CC2=O)cc1 (centres unmarked),15.6
11,COc1ccc(NC(=S)NCc2ccc(F)cc2)c(OC)c1,1.54
12,S=C(Nc1ccc(Cl)c(Cl)c1)NC1CCCCC1,-4.21
13,Nc1nc(NCCO)nc(NC2CCCCC2)c1[N+](=O)[O-],-4.71
14,Clc1ccc(-c2c(C3=NCCCN3)nnn2-c2ccc(Cl)cc2)cc1,-45.1
15,CCn1c(=O)cc(OCC(=O)Nc2ccccc2C#N)c2ccccc21,6.06
16,Cc1cc(C)cc(-n2ncc3c2CCCC3NC(=O)C2(C(N)=O)CC2)c1 (centres unmarked),13.7
17,CNC(=S)N(Cc1ccc(OC)cc1)C1CC(=O)N(c2ccc(Cl)cc2)C1=O (centres unmarked),-12.6
18,O=[N+]([O-])c1ccc(Cl)c2c1C1C=CCC1C(c1ccccn1)N2 (centres unmarked),17.4
19,Cc1nc(C(=O)O)cc2c1[nH]c1ccccc12,2.13
20,CCC(Cc1ccccc1)NS(=O)(=O)c1ccc2c(c1)NC(=O)C(C)S2 (centres unmarked),11.4
21,Cc1cc(N2C(=O)C(O)=C(C(=O)c3ccc(C)o3)C2c2cccc(Oc3ccccc3)c2)no1 (centres unmarked),16.4
22,O=C(c1ccc2c(=O)n(Cc3ccco3)c(=S)[nH]c2c1)N1CCN(Cc2ccccc2)CC1,-5

row,Structure (SMILES),"hERG current change (%, negative = inhibition) at 10uM [%]"
1,COC(=O)c1ccc(N/C(C)=C/C(=O)c2ccc(C)o2)cc1,9.09
2,COc1ccc(C(C(=O)NC2CCCC2)N(CC2CCCO2)C(=O)Cn2nnc(-c3ccc(C)o3)n2)cc1 (centres unmarked),12.9
3,Br.C/C(=N\NC1=N[C@H]2CS(=O)(=O)C[C@H]2S1)c1ccccc1,14
4,CCOC(=O)c1nc2cc3n(c(CC(C)C)c-2c1C)CC(C)=C3C.Cl,-74
5,C/C(=N\NC(=O)COc1ccc(C)cc1[N+](=O)[O-])c1ccc2c(c1)OCCO2,4.86
6,CN(C)/C=C(/C(=O)c1ccccc1)S(=O)(=O)c1ccc(Cl)cc1,-0.572
7,S=C(NCCCN1CCOCC1)Nc1ccc(Cl)cc1Cl,-30.3
8,O=C(O)c1cccc(NS(=O)(=O)/C=C/c2ccccc2)c1,1.99
9,Cc1ccc(-n2nnnc2SCC(=O)Nc2sc(C)c(C)c2C#N)cc1C,3.56
10,S=C(NCc1cccnc1)Nc1ccc(Oc2ccccc2)cc1,3.01
11,Brc1cccc(C2Nc3cccc4cccc(c34)N2)c1,14.9
12,CCOCCCNC(=O)Cc1ccc(Br)cc1,-1.41
13,COC(=O)c1c(C)oc2ccc(N(C(C)=O)S(=O)(=O)c3ccccc3)cc12,-7.71
14,COc1ccc(N2C(=O)/C(=C/c3cccs3)C(=O)NC2=S)cc1,25.1
15,Cc1nc(-c2ccccc2)sc1C(=O)CSc1ccc(Br)cc1,7.71
16,COc1ccccc1/C=C1\SC(=S)N(CCC(=O)Nc2cc(C)on2)C1=O,15.6
17,COc1ccc2[nH]c(=O)c(CN(CCc3cccc(C)c3)C(C)=O)cc2c1,-36.5
18,COc1ccc(NC(=O)CCS(=O)(=O)c2ccc3c(c2)oc(=O)n3C)cc1OC,18
19,O=C(Nc1ccccn1)c1cc2ccccc2cc1O,20.6
20,COC(=O)C1CC(Cl)CN1c1ncc(C(F)(F)F)cc1Cl (centres unmarked),7.81
21,COc1c(Cl)cc(Cl)cc1C(=O)Nc1ccc(NC(=O)c2cccs2)cc1,13.2
22,O=C(CSCc1ccccc1)NNc1c(F)c(F)cc(F)c1F,10.3

row,Structure (SMILES),"hERG current change (%, negative = inhibition) at 10uM [%]"
1,O=C(O)c1cnn(-c2ccccc2)c1-c1ccncc1,24.9
2,CC(=O)Nc1ccc(NC(=O)CC2SC(=O)N(CC(=O)c3ccccc3)C2=O)cc1 (centres unmarked),7.25
3,COCCn1c(N)c(N(Cc2ccccc2)C(=O)c2ccc(-c3ccc(Cl)cc3)o2)c(=O)[nH]c1=O,-45.5
4,COc1ccc(OC)c(C2C(C(=O)c3sc(C)nc3C)=C(O)C(=O)N2CCN2CCOCC2)c1 (centres unmarked),25.5
5,Cc1nc2c(-c3ccc(F)cc3)c(C)nn2c(C)c1CCC(=O)N1CCC2(CC1)OCCO2,-67.8
6,O=C(NCc1ccncc1)c1ccc(Br)cc1,-34.2
7,CC1CCCN(C(=O)COC(=O)CSc2ccc(C(N)=O)cc2[N+](=O)[O-])C1 (centres unmarked),-6.73
8,N#CCCN(C(=O)CN1C(=O)NC2(CCCC2)C1=O)c1ccccc1F,9.15
9,COc1ccc(-c2nnc(SCc3cc(C)ccc3C)n2N)cc1,-8.52
10,O=C(Nc1ccc(C(=O)N2CCC([NH+]3CCOCC3)CC2)cc1)c1ccc(Br)o1.O=C(O)C(F)(F)F,3.26
11,CC1Cc2cc(S(=O)(=O)N3CCC(C(=O)NCc4ccco4)CC3)ccc2N1C(=O)C1CCC1 (centres unmarked),-5.05
12,CCN(CC)CC#CCC(O)(c1ccccc1)C1CCCCC1.Cl (centres unmarked),-28
13,Cn1cnnc1SCc1ccc(C(=O)NN)cc1,-10.1
14,COc1ccc(NC2CC(=O)N(C(C)C)C2=O)cc1 (centres unmarked),20.7
15,O=C(CSc1nnc(-c2ccccc2)o1)N1CCN(c2ccccc2)CC1,24.5
16,COc1ccc(CNC(=O)CCCn2nc(C)c3c(C)n(-c4ccc(C)cc4)nc3c2=O)cc1OC,-26
17,CCOC(=O)C1CCN(C(=O)CCS(=O)(=O)c2ccc3c(c2)CCN3C(C)=O)CC1,13.5
18,CCOc1ccc(-n2ccnc(SCC(=O)NCc3cccc(OC)c3)c2=O)cc1,-26.2
19,O=C(c1cc2c(s1)CCCC2)N1CCN(c2ccccc2)CC1,5.61
20,CC(C)(C)OC(=O)NCCCCCNC(=O)c1[nH]cnc1C(=O)NC1CCN(C(=O)OC(C)(C)C)CC1,-78.1
21,N#CCC(=O)Nc1ccc(C(=O)OCC(=O)N=c2sccn2Cc2ccccc2Cl)cc1,-17.7
22,Cc1c2c(nc3ccccc13)CC(C)(C)CC2=O.Cl,0.994

row,Structure (SMILES),"hERG current change (%, negative = inhibition) at 10uM [%]"
1,O=C1CN(CC(=O)Nc2cccc(Cl)c2Cl)c2ccccc2N1,12.1
2,COc1ccc(C)cc1NC(=O)CCNS(=O)(=O)c1cccc(C(F)(F)F)c1,-27.6
3,COc1cc(C(=O)Nc2cccc(-c3nc4cc(C)ccc4o3)c2)cc(OC)c1OC,6.91
4,CCc1c(C)c2ccc(OCC(=O)N(C)C)c(C)c2oc1=O,-17.2
5,COc1ccc(CNc2nc3ccccc3n2C)c(OC)c1,-25
6,COc1ccc(C(=O)CSc2nnc(-c3ccco3)n2C)cc1,-12.1
7,CN(NC1OC(=O)c2ccccc21)c1ccc(C(F)(F)F)cc1[N+](=O)[O-] (centres unmarked),34.2
8,CC(=O)Nc1ccc(NC(=O)c2cc(-c3cc(C)cc(C)c3O)n[nH]2)cc1,31.6
9,COc1ccc(CN(CC(=O)NC(C)C)C(=O)CCC(=O)Nc2nccs2)cc1,9.18
10,NC(=S)Nc1cc2ccccc2c2ccccc12,6.65
11,COc1ccc(S(=O)(=O)N2CCCC2C(=O)n2nc(C)cc2C)cc1 (centres unmarked),14.1
12,CC(C)Cc1nc(N2CCOCC2)c(C#N)c2c1COC(C)(C)C2,-7.61
13,COCCNC(=O)C(=O)Nc1cc2c3c(c1)CC(=O)N3CCC2,19.4
14,COc1ccc(CNC(=O)Nc2cccc3ccccc23)cc1,4.84
15,CCn1cc(/C=C/C(=O)NCc2c(C)nn(C)c2C)cn1,-2.66
16,COCCN(C(=O)c1ccccc1F)c1nnc(-c2ccc(OC)cc2)s1,-3.34
17,Cc1ccc(CN2CCNC(=O)C2CC(=O)NC2CCCCCC2)o1 (centres unmarked),9.02
18,COc1ccc(-n2nc(C(=O)NCc3cc(OC)ccc3OC)c3c4ccccc4n(C)c3c2=O)cc1,20.3
19,O=C(CSc1nnc(-c2cc3ccccc3cc2O)n1Cc1ccco1)c1ccc(F)cc1,-13.6
20,O=C(COc1ccccc1Cl)N1CCCCCCC1,-1.53

# — PMC4336329 (PLoS ONE, 2015)
